The labels stand for the following.
B1: OR4K15 (parent)
chain: GUUAACGGUCAUAGGCCAUGGAAACUAGGAGCACCAUUUCGCUGCCAGUGAAGAAAUGAACAAAGAAAAUCUGGGCCAGGCAGGCAUCAAAAGAAAUAGUCUUGCGCUCAACCAGAAAGUCUGUAAUCAUUUUAAGGGUA

The values that follow come from the RNAGym collection of RNA variant scans (doi:10.7554/elife.90254).

The source gives no read counts; variants with many changes may rest on few reads.

Variants of B1 are the subject of this data set. In words: self-cleavage, relative activity (ratio to wild type); higher = more cleavage; in vitro, sequencing; the parent is a self-cleaving ribozyme.
A18U U19C U87A: the self-cleavage turned out to be 0.83.
Consider U19C A52G A118G, for which the self-cleavage was determined as 1.13.
Turning to U19A A62G A111U U124C U132C, the self-cleavage is 0.02.
Next, G21U U49G A95G U102C: 0.75; G21A A51U A86U A95G U132C: 2.23; U19C U87C U103C: 1.08.
Next, A22G A27C U37C: 1.16; U19C A64U A66G A82U A94G A98G A140C: 0.08.
The figure for U19C A86G U108C is 0.02; for U19C U38C A96G A135G it is 1.93.
As to U19C A91G A118U A134G, the self-cleavage worked out at 0.22.
Next, G20A A59G U70C A118G U124A: 0.09; U19C A52G A55C A91G: 0.24; A22G A30G A51G A59U C128A: 0.54.
Consider U19A U38A U49C A90G A94G U132C, for which the self-cleavage is 0.94.
Next, U19C A36U U127G U132C U139C: 0.71; U19C A60U A78G U100C A116G: 0.17; U19C A23G A116U U131C: 0.55.
For U19C A47U A117G A135G G138U, the self-cleavage was 0.37.
The figure for G21A G73C A82G U87C is 0.12.
The figure for U19C A62G U132C is 1.05; for A18U U57G U108A A117U it is 0.
The figure for U19A A52G A66G A96G A111G is 0.12; for G21A A62U A64U A111G it is 0.03.
Turning to U19A G48U A60G C76U A94G, the self-cleavage amounted to 0.08.
The figure for U19C A51G A52G A60G A64G A66G A69G A89G is 0.67; for G21U A90U A94G A116G U122C it is 0.95; for U19C U38C C42U U131C U132C it is 0.7.
The figure for U19C A30G U139C is 0.98; for U19C U43C A60G C85G A117U A118U it is 1.36; for A22G A23G A60G A126G it is 0.56.
In the case of A18U U87C U102C, the self-cleavage was 2.35.
The figure for U19A A55G A69G A98G A117G U130C is 0.15.
On to U19C A30G A129G, for which the self-cleavage turned out to be 0.53.
Next, A22C C105U A117U: 0.25; U19A U43A G50A: 1.1; A22G A30G A78G A91C U108C: 0.07.
As for A22G A36G A64G A91G, the self-cleavage was 0.99.
For the variant U19C U37C A126G U130C, the self-cleavage came out at 0.22.
As to G21A A23U A27U A33G G75C U108A U122C, the self-cleavage was determined as 0.01.
Next, U19A C45G U130C: 0.66; U19A A86U U132C: 1.08.
Next, U19C U49C U122C: 0.33; U19A A95G U133C: 2.1.
The figure for U19C U38C A47C A117G is 2.39; for U19A A66G A111G U120C it is 0.02.
Turning to U19C U26C A86U A94G U120A, the self-cleavage worked out at 2.83.
The figure for G20A U122C A126G is 0.53.
The figure for U19C U26C G48A A52G is 1.13; for U19C A51G A111G it is 0.05; for U19A U38G A117G it is 1.61.
The figure for U19C A67G U87C is 1.16; for A22C C40U A63G A69G A89C it is 1.04; for A22G A36G U103G it is 0.05.
With A18U U43C A54G, the self-cleavage turned out to be 1.67.
Next, U19A A23G U39C A82U A116U: 0.02; G20A A67C G79C U122C: 0.06; U19C U72C A94G U102C: 0.16.
Next, U19A A36G A55G: 1.26; U19C A22G A95G: 1.4; U19C U87C A96U: 2.64.
The figure for A18U U26A U139G is 0.83; for U19C A23C A86G A111G U130C it is 0.01.
Regarding U19C U43G A51G, the self-cleavage was 0.99.
As for U19A G28A A95G U108C, the self-cleavage was 0.02.
Turning to U19C G74A A90G A111G, the self-cleavage is 0.01.
Next, U19C U38C A96C: 0.21; U19C A66G A126G U132A: 1.47.
In the case of A18U U49A A56G, the self-cleavage came to 1.37.
Turning to G20U C35U U57C A60U A92U, the self-cleavage was 0.09.
The figure for U19A A52U U100C is 2.15; for U19C A22G U100C it is 1.38.
Next, U19A A60G A66G A125G: 0.6.
For the variant A22G A24G A96G A134U, the self-cleavage came out at 0.34.
Next, A22G A33G U127C A129G: 0.06; U19C A66U A82U: 0.26.
The figure for U19C G48A A62G A96G is 0.77; for U19A C42U C105U it is 0.04.
The figure for G20U A78C A92G A125G U127C is 0; for U19C A63G U87A A125G it is 0.49; for A22G A27G A90G it is 1.2.
As to A22G A23G A56C, the self-cleavage stood at 0.84.
The figure for U19C A86G U102C is 1.7; for U19A U39C A118G it is 1.54; for U19A A24G A33U A62G U108C it is 0.05.
Next, U19C A62G A116G: 0.44; U19A U43A U132A: 0.72.
The figure for G20A G106A A116G is 0.04.
Consider A18U U108A U120C U127C, for which the self-cleavage came to 0.01.
Next, U19C A47U A92U: 0.66; U19C A62U A68G A69G: 0.91.
The figure for U19C A52G U97C is 1.86; for U19C A30G A66G it is 0.76.
For U19A A54G A91G A114G, the self-cleavage was 0.06.
Next, U19C A116G U122C: 0.41; U19C A51U A96G U122G: 2.12.
Next, U19G U37C A92G: 1.21; A22G A23G U43A A82U A110G A129U: 0.08; U19A A33G A98G A110G U131C: 0.01.
With A22G A36G A52G A110U, the self-cleavage is 0.8.
The figure for G20A C45U A51G A60G is 0.85; for U19C A22G C46A A52U A94G it is 1.3; for U19C A95U G99A A111U U120A it is 0.01.
As to A18U U39C U124A, the self-cleavage turned out to be 0.43.
Next, G20U A23G A59G A111G A126G: 0.01; G20U U49A A86U A118U: 0.51; U19A A54U A60G A117G U139C: 1.42.
U19C A69G A118G: the self-cleavage was 1.07.
Next, U19C A23G U43C A78G: 0.26.
The figure for U19A G58A U72C is 0.07.
Next, G21A A22G A52U: 2.08; U19A A54G A59U A86G A111G: 0.06; U19C A56G A98C U120C: 0.41.
With U19A G41A G79A A94G U122A, the self-cleavage was 0.11.
The figure for U19C U39A A51G is 1.25.
Next, A18U G21A A82G C85U A126U: 0.29; U19A C85U U108C A126G: 0.
Next, U19C A78G A98G U130C: 0.04.
In the case of U19C A54G A64G U102C, the self-cleavage is 1.48.
The figure for U19C A47U A95G U122C A125G is 0.64; for U19C A67G U103C it is 1.12; for U19A A54G A66G U100A U103C it is 0.1.
The figure for U19C A62G A91G U108A U132C is 0.
Turning to G20A U38A A91G, the self-cleavage was 1.8.
The figure for A22G A36G U39C A117G U131C is 1.33; for G21A A22G A114G U127C it is 0.05; for U19A C45U A54U A111G A117G it is 0.01.
U19C A52G A114U: the self-cleavage was found to be 0.11.
Next, U19C A64G U122C: 1.63; U19A A24G G31U U49C A52G U103C A114G: 0.43.
The figure for A22C A33G A56G U70C is 0.19.
With U19C U39C A117G, the self-cleavage came to 2.42.
Next, A22G A47G A52G A56G: 1.07; U19A A22G A89G U108A: 0.1; G21A A33U U37C A51U: 1.17.
The figure for A18U U49A U70C C107U A111G is 0.01.
Next, G21U U70C U87C: 0.74; U19C A36U A60G A96G U122C: 1.59.
U19C A52G A110C A111G U122C A125G: the self-cleavage is 0.
The figure for U19C A33G A110U is 0.46; for U19A A30G A68G it is 0.57.
Regarding U19G U57A A59U A96G, the self-cleavage came out at 1.15.
Next, A22G A27G U72C A96G: 0.44.
As for U19A U38C U87A A90G U100C, the self-cleavage stood at 2.24.
The figure for U19C A36G A59G is 1.08; for U19A A59G A68G U102C it is 2.44.
The figure for A22G A23G U37C is 0.92; for U19A U100C A135G it is 2.04; for U19A A33U A59U A117U it is 1.6.
For the variant U19C A33C U39C, the self-cleavage amounted to 1.45.
Next, U19C U39C A125U: 2.21; U19C U43C U131C: 1.2.
With U19A U39A U49C A59G A63G A92U, the self-cleavage turned out to be 1.4.
Regarding U19C A22G A60G, the self-cleavage is 1.13.
Next, U19C A60G A89G U122C: 1.15; A22G A30U U39C A95G: 1.73; A22G A47G A52U C101U A114U: 0.04.
The figure for U19A A30U A33G A54G is 0.92.
Next, U19C A24G U43A A69G U132C G136A: 1.72.
For U19C A22G A60G U132C, the self-cleavage is 0.41.
On to U19C U39A A111G, for which the self-cleavage turned out to be 0.01.
Next, G21U U39C A96U U120C: 1.27; U19C A22G A23G A78U: 0.6; U19G U43A A54G C77U U100C: 0.62.
Next, U19A A30G U102C U103C: 0.43; U19A A47U U132C: 0.25.
Next, G21U A33G U38A A117G: 0.85.
